According to PubChem BioAssay (NCI):
“And” between values parts separate entries of the source, which are not always exact repeats. Equal values may be shown once.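 Grown in 96-well plates, cells were treated for 48 hours with each compound at five concentrations. Insufficient inhibition: endpoint recorded as highest concentration tested. Abbreviation: GI50, concentration required for 50% inhibition of growth. TGI is the concentration that stops growth completely.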 Bridge positions count the residues as written; N and C are the ends. Square brackets hold non-standard residues; d marks the D form. Peptide text beside a SMILES is read from it. * marks the point of attachment. ξ: configuration not given here. X21 = O=C(/C=C/C=C/C=C/C=C/C=C/C(=O)*)NC1=C(O)CCC1=O; Dolaproine = CO[C@@H]([C@@H]1CCCN1)[C@@H](C)C(=O)O; Dil = CC[C@H](C)[C@H](NC)[C@@H](CC(=O)O)OC; Pro(4R-Me) = C[C@H]1CN[C@H](C(=O)O)C1; X2 = C[C@@H](N*)[C@@H](O)c1ccccc1; NMeV = CN[C@H](C(=O)O)C(C)C; NMeA = CN[C@@H](C)C(=O)O; ξF = NC(Cc1ccccc1)C(=O)O; ξA = CC(N)C(=O)O

Tested on: NCI-H322M lung
Test: NCI-60 cell line screen, 48 h

Row | Compound | TGI | GI50
1 | Cc1nnc2n1-c1ccccc1-c1[nH]c3ccccc3c1C2 | > 100 µM | –
2 | C/C=C(/C)C(=O)O[C@H]1CCN2CC=C(COC(=O)[C@@](O)([C@H](C)OC)C(C)(C)O)[C@H]12 | > 100 µM | –
3 | COc1ccccc1N1C(=O)CSC1c1c[nH]c2ccccc12 (configuration not stated) | > 100 µM | –
4 | O=C(Nc1ncc(Cc2ccccc2)s1)c1sc2ccccc2c1Cl | > 74.7 µM | 3.3 µM
5 | Clc1ccc2c(N3CCN(c4ccnc(NC5CCCCC5)n4)CC3)ccnc2c1 | 12 µM | 3.2 µM
6 | O=c1[nH]nc(-c2ccccc2)n1/N=C\CC/C=N\n1c(-c2ccccc2)n[nH]c1=O | > 100 µM | –
7 | CCCCCCCCCCC(=O)CC(=O)c1c(O)cccc1O | > 100 µM | –
8 | COC(=O)c1oc([N+](=O)[O-])c(Cl)c1Cl | 26.5 µM | –
9 | NC1=NC(=O)[C@H](Cc2c[nH]c3ccccc23)N1C(=O)OCc1ccccc1 | > 100 µM | –
10 | O=C1CC[C@H](NC(=O)Cc2ccccc2)C(=O)N1 | > 1250 µM | –
11 | C#Cc1cc(-c2nc3ccccc3s2)ccc1N | 46 µM | –
12 | CC[C@H](C)[C@@H]([C@@H](CC(=O)N1CCC[C@H]1[C@H](OC)[C@@H](C)C(=O)N[C@H](C)[C@@H](O)c1ccccc1)OC)N(C)C(=O)[C@@H](NC(=O)[C@@H](NC)C(C)C)C(C)C (H-[NMeV]V[Dil][Dolaproine]-X2) | > 100 µM | < 0.005 µM
13 | CNC(=O)c1ccccc1Nc1cc(Nc2ccc(N3CCOCC3)cc2OC)ncc1C(F)(F)F | > 79.6 µM | 2.11 µM
14 | CC1CCCc2sc3nc(NNC(=O)c4cnccn4)n(-c4ccccc4)c(=O)c3c21 (configuration not stated) | > 100 µM | 0.354 µM and 0.234 µM
15 | COc1nc(-c2c[nH]c3ccccc23)cnc1N | > 100 µM | –
16 | C[CH2][Sn]([CH2]C)([O]C(=O)c1ccccc1F)[O]C(=O)c1ccccc1F | > 100 µM | > 77.9 µM
17 | CC(C)(CNC(=O)/C(Cl)=C(/Cl)C(=O)O)CNC(=O)/C(Cl)=C(/Cl)C(=O)O | > 100 µM | –
18 | Nc1cccc2nnccc12 | > 100 µM | –
19 | CCCC[C@H](NC(=O)[C@H]1CCCCN1C)C(=O)N(C)[C@H](C[C@@H](OC(C)=O)c1nc(C(=O)N[C@@H](Cc2ccccc2)C[C@H](C)C(=O)OCC)cs1)C(C)C | > 33.3 µM | < 0.00333 µM
20 | [N-]=[N+]=Nc1cc(=O)n(-c2ccccc2)c2ccccc12 | > 100 µM | –
21 | CCCCCCCCCCCCc1ccsc1-c1ccc(-c2ccc(-c3sc(-c4cc(CCCCCCCCCCCC)c(-c5ccc(-c6ccc(-c7sccc7CCCCCCCCCCCC)s6)s5)s4)cc3CCCCCCCCCCCC)s2)s1 | > 100 µM | –
22 | COc1cc(C2C3=C(COC3=O)N(CCO)c3cc4c(cc32)OCO4)cc(OC)c1OC (configuration not stated) | 12.5 µM and > 16.8 µM | 1.04 µM and 0.855 µM
23 | CC1CC[C@@]23CCC4(C)[C@@](C=CC5[C@@]6(C)CCC(=O)C(C)(C)C6CC[C@]54C)(OC2=O)[C@@H]3[C@H]1C (some centres not stated) | > 100 µM | –
24 | O=C(/C=C/c1ccc2ccccc2c1)NCc1ccc(C(=O)NCc2ccccc2)cc1 | > 100 µM | –

Row | Compound | TGI | GI50
25 | CN(CCCN=C=S)CCCN1c2ccccc2CCc2ccccc21 | 3.11 µM | –
26 | COc1ccc2[nH]c3c(C)c4ccncc4c(C)c3c2c1 | 1.66 µM | –
27 | CCCCC(CCCCCC(CCCC)C1NC(C)Cc2cc(OC)c(OC)cc21)C1NC(C)Cc2cc(OC)c(OC)cc21 (configuration not stated) | 3.88 µM | 2.01 µM
28 | CC(C)=CCNc1ncnc2c1c(C#N)cn2C1OC(CO)C(O)C1O (configuration not stated) | > 100 µM | –
29 | CCOC(=O)[C@H]1O[C@@H]1C(=O)NC(CC(C)C)C(=O)NCCC(C)C (some centres not stated) | > 100 µM | –
30 | CCC(=O)Nc1ccc(NCC(=O)Nc2ccc(Cl)cc2)cc1 | 29.9 µM | –
31 | COc1cc2c(/C=C3/C(=O)Nc4c3ccc3ccccc43)c(Cl)n(C)c2cc1C | 11.5 µM | < 0.0343 µM
32 | Cc1cc2c(O)c(c1)CN(Cc1ccccc1)Cc1cc(C)cc(c1O)CN(Cc1ccccc1)Cc1cc(C)cc(c1O)CN(Cc1ccccc1)C2 | > 100 µM | –
33 | O=C1/C(=C/c2ccccc2)CN(C(=O)CCN2CCC(=NO)CC2)C/C1=C\c1ccccc1 | 3.03 µM | 1.63 µM
34 | C1C[OH+]CC[OH+]CC[OH+]CC[OH+]CC[OH+]CC[OH+]1.[Cl-].[V] | 78.8 µM | 23 µM
35 | O=C(c1ccc(Cl)cc1)N(C(=S)OC12CC3CC(CC(C3)C1)C2)c1ccccc1 | > 100 µM | –
36 | CCNCCCNc1c2ccccc2nc2ccccc12 | 8.09 µM | –
37 | CC(C)(C)COC1C2(OCCO2)C2CCC1(C)C2(C)C (configuration not stated) | > 100 µM | –
38 | C=C(CBr)CCCOCc1ccccc1 | > 100 µM | –
39 | Clc1cc(OC23CC4CC(CC(C4)C2)C3)nc(Cl)n1 | > 100 µM | –
40 | Nc1ccc(S(=O)(=O)c2ccc(N)cc2)cc1 | > 100 µM | > 100 µM
41 | OCCCCC#Cc1ccccc1C#Cc1ccccn1 | > 100 µM | 56.5 µM
42 | Cc1cc(S(=O)(=O)n2cc[nH]c2=O)c(SCCCN(C)C)cc1Cl | > 100 µM | –
43 | CC(C)(C)OC(=O)NCCC1SC2C=CC1C2 (configuration not stated) | > 100 µM | –
44 | NNC1=Nc2ccc(Cl)cc2C(=S)N2CSCC12 (configuration not stated) | > 100 µM | –
45 | CC(=O)NNc1nc(C)c(C(=O)/C=C/C=C/c2ccccc2)s1 | > 100 µM | –
46 | CCn1c(O)c(C=Nc2ccccc2)s/c1=N/Nc1ncc(CC(=O)Nc2ccccc2C)s1 | > 100 µM | –
47 | C=C1CC2(CC(c3ccccc3OC)OC(c3ccccc3OC)C2)OC1=O (configuration not stated) | 28.7 µM | –
48 | CC1NC(=O)[C@H](C)N(C)C(=O)[C@@H]2CCCN2C(=O)[C@@H](NC(=O)C(Cc2ccccc2)NC(=O)/C=C/C=C/C=C/C=C/C=C/C(=O)NC2=C(O)CCC2=O)COC(=O)[C@@H]2C[C@@H](C)CN2C1=O (stereo partly drawn) (X21-[ξF]SP[NMeA][ξA][Pro(4R-Me)]; ester 2-C) | > 100 µM | –
